Assay results from the supplement of paper PMC11417369.
± gives the standard deviation of the averaged measurements. This is one part of the list.

These sequences were tested on PfAP2-LT AP2 domain (GST-tagged) (assay: gcPBM binding intensity (ln(normalized median fluorescence intensity)); higher = stronger DNA binding).
Summary of the method: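 GST-tagged P. falciparum DNA-binding domains, expressed in E. coli (about 25 μg on average), were applied for 1 h to an Agilent 4 × 180k array of primer-extended double-stranded 36-bp intergenic genomic probes plus negative controls. The binding buffer was 1× PBS with 1% milk, 0.2 mg/ml BSA, 0.5% salmon testes DNA and 0.03% Triton X-100. Bound protein was detected with Alexa488 anti-GST antibody and scanned at 488 nm. Binding intensity is the highest Masliner-normalised natural-log median intensity across replicate spots of either probe orientation.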
With “ATATATATATATTGCACACATATAAATATATATATT [CACACA_site807]” the “gcPBM binding intensity (ln)” value was 9.04 ± 0.29. “CTTAAATTTTTAAATACACACATACACCCATACACA [CACACA_site4461]” was tested, and the “gcPBM binding intensity (ln)” value was 9.315 ± 0.064. “AAACCCTATTCAATGCAATAATTTTATAATTTTTTT [TGCATGCA_negctrl_site434]” was tested, and the “gcPBM binding intensity (ln)” value was 8.44 ± 0.44. For “TTTTTTTTAAATATCACACACATATAATATATTCTA [CACACA_site3668]”, the “gcPBM binding intensity (ln)” value was 8.81 ± 0.43. “TTTATTATAATATGTTGTACAAGACGTTTCAGTATA [XGTACX_site4486]” was tested, and the “gcPBM binding intensity (ln)” value was 8.57 ± 0.38. With “AAATTATCTTAATAGGATGTTCAAGGAGAAAGATGA [CACACA_negctrl_site1032]” the “gcPBM binding intensity (ln)” value was 8.65 ± 0.44. For “TAAATTAATACCTATGCACACATTTTTTTTTTTAAA [CACACA_site1238]”, the “gcPBM binding intensity (ln)” value was 8.69 ± 0.41. With “TTACCTTTTTCTAATGGTACACATAAAATATCATTT [XGTACX_site6825]” the “gcPBM binding intensity (ln)” value was 8.6 ± 0.36. For “TTTTCTTACACGAATTTTAAATTCAATATTAAACAT [CACACA_negctrl_site286]”, the “gcPBM binding intensity (ln)” value was 8.41 ± 0.44. With “GAGTTAATTTTTTCGTGTACTTGAAAATATTTTTTT [XGTACX_site6392]” the “gcPBM binding intensity (ln)” value was 8.72 ± 0.51. For “TTAGCAACTATTACTACACACATTTGTATATAACTT [CACACA_site6850]”, the “gcPBM binding intensity (ln)” value was 9.13 ± 0.45. With “GTGGAAATATAACACATTTTTTTTAATAATTATATT [TGCATGCA_negctrl_site522]” the “gcPBM binding intensity (ln)” value was 8.48 ± 0.56. With “TAGCGGCGGTATCATGCACACGTATATATTGTAACA [CACACA_site8453]” the “gcPBM binding intensity (ln)” value was 9.13 ± 0.37. For “AACATGTATATATTATGTACATATGTTAAAATGATA [XGTACX_site6217]”, the “gcPBM binding intensity (ln)” value was 8.96 ± 0.36. In the case of “ATAGTTTTATATAAATGTACAAATGATTTCAAATAG [XGTACX_site8236]”, the “gcPBM binding intensity (ln)” value is reported as 8.62 ± 0.49. In the case of “TAAAAGTAAAGACATGCATGCATTGGTATCTTTTAC [TGCATGCA_site665]”, the “gcPBM binding intensity (ln)” value is reported as 8.95 ± 0.35. In the case of “GACCCACTTTTCTGCACACATAAAAAATATATAAAT [CACACA_site4483]”, the “gcPBM binding intensity (ln)” value is reported as 9.06 ± 0.35. With “TATAATAAAACTTTTACACACTTTAAAAAAAAAAAA [CACACA_site6392]” the “gcPBM binding intensity (ln)” value was 8.46 ± 0.49. “TTTATATTTAAATATATATGAGAAAACACAAAATAT [TGCATGCA_negctrl_site211]” was tested, and the “gcPBM binding intensity (ln)” value was 8.62 ± 0.3. “ATATCTTTGCAAAGATGTACTTGTAAAAATATATGA [XGTACX_site768]” was tested, and the “gcPBM binding intensity (ln)” value was 8.59 ± 0.39. In the case of “TATATATATATATATATACACACGTATATATATACA [CACACA_site4155]”, the “gcPBM binding intensity (ln)” value is reported as 9.97 ± 0.4. “TAATATCAATATAAAGTACACACTATAGTATGTATT [CACACA_site2280]” was tested, and the “gcPBM binding intensity (ln)” value was 8.95 ± 0.4. In the case of “TAGTTACTTCTTATATAAAATATGTATATAAAAATA [GTGCAC_negctrl_site190]”, the “gcPBM binding intensity (ln)” value is reported as 8.31 ± 0.38. For “TTCATATTATAGTGCACACAAAAATATATATATGGT [CACACA_site2855]”, the “gcPBM binding intensity (ln)” value was 9.16 ± 0.3. In the case of “TTGTTTGTTGTAACGTGTACAGATAAAAATAAAGGG [XGTACX_site375]”, the “gcPBM binding intensity (ln)” value is reported as 8.78 ± 0.49. For “ACATATTAATTATAAAGTACATATATATATATATAT [XGTACX_site4540]”, the “gcPBM binding intensity (ln)” value was 9.47 ± 0.11. For “TCTCTCATTTATTTTTGTACTTAATCCAGCACGTTT [XGTACX_site1369]”, the “gcPBM binding intensity (ln)” value was 8.94 ± 0.57. For “GCTTCATTTTAAACTTGTACTTATTTTTTGGTAAAT [XGTACX_site8879]”, the “gcPBM binding intensity (ln)” value was 8.79 ± 0.47. With “ACTACAAGGCAATACAGTACATATAAATGTCATAAT [XGTACX_site8468]” the “gcPBM binding intensity (ln)” value was 9.06 ± 0.49. In the case of “TACCTTTTATTAATGTGTACCTAAAATATAATACTT [XGTACX_site192]”, the “gcPBM binding intensity (ln)” value is reported as 8.71 ± 0.45. In the case of “AAAAAGGTTATTGGTACACACATATGTATTTATATA [CACACA_site4464]”, the “gcPBM binding intensity (ln)” value is reported as 9.02 ± 0.34. With “TAACAAAACCTTATATGTACACACATATACATCACA [XGTACX_site6772]” the “gcPBM binding intensity (ln)” value was 9.2 ± 0.52. “TTATCATTTTAAATCACACACATATATATATATATA [CACACA_site2849]” was tested, and the “gcPBM binding intensity (ln)” value was 9.51 ± 0.15. For “TTAAAAATGAACATATGTACATATATATATATATAT [XGTACX_site7923]”, the “gcPBM binding intensity (ln)” value was 9.66 ± 0.43. For “AATAATGAAGCTTATGCACACGTTCATTATTTATAT [CACACA_site5736]”, the “gcPBM binding intensity (ln)” value was 9.04 ± 0.39. For “ATAATTTTTTTTTTTTTTTTTTGAAAGTAGCATATG [CACACA_negctrl_site732]”, the “gcPBM binding intensity (ln)” value was 8.28 ± 0.44. For “AAAAGAATTACTTTCACACATATATATCTGTAAATA [CACACA_site5798]”, the “gcPBM binding intensity (ln)” value was 8.58 ± 0.37. For “TACATATTTATATACACACACACCCTAAAAATATAT [CACACA_site6861]”, the “gcPBM binding intensity (ln)” value was 9.68 ± 0.27. In the case of “TTTTGAATATTTGGTCGTACGTAAAAATAGATAATT [XGTACX_site5755]”, the “gcPBM binding intensity (ln)” value is reported as 8.54 ± 0.35. In the case of “TTTCATATTTTGTCCTGTTTTTTTTTTTTTTTTCTT [CACACA_negctrl_site993]”, the “gcPBM binding intensity (ln)” value is reported as 8.77 ± 0.52. In the case of “TATTTTATGTAAATTGGTACACATATGTCAGTAAAA [XGTACX_site7111]”, the “gcPBM binding intensity (ln)” value is reported as 8.62 ± 0.42. With “GATGCTAAAATTTATACACACAAAAAAAAAAAATTC [CACACA_site3284]” the “gcPBM binding intensity (ln)” value was 8.91 ± 0.48. In the case of “CAATAATTTTTTGTGGGTACAAATAATTTTTTAAAT [XGTACX_site2407]”, the “gcPBM binding intensity (ln)” value is reported as 8.35 ± 0.4. With “AGGAGAAAAGATAAAGACTTCAAGAAAAAAAAATAA [TGCATGCA_negctrl_site258]” the “gcPBM binding intensity (ln)” value was 8.47 ± 0.61.
